Measured values taken from the supplement of paper PMC4967469.
A lower IC50 marks a more sensitive line; fits outside the tested doses are given as limits. AUC, from the same fit, is the share of area under the viability curve across the 256-fold dose range; the more sensitive the line, the further below 1. A top dose marked as inferred comes from the curve model; the source does not state it. An entry number marks a drug with two screens in the source, which often give different values.

Each cell line was assayed with NC(=O)[C@@H](CCC(F)(F)F)N(Cc1ccc(-c2ncon2)cc1F)S(=O)(=O)c1ccc(Cl)cc1 [BMS-708163] (assay: Viability of human cancer cell lines after 72 h of drug (GDSC screen)). Conditions: screen: GDSC drug entry 205; top dose inferred.
Protocol: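 Human cancer cell lines in 384-well plates, medium with 10% serum, drug for 72 h over a 256-fold dose range (nine 2-fold or five 4-fold steps up to the top dose). Adherent lines were fixed and stained with the nucleic acid dye Syto60, suspension lines read with resazurin; signal relative to control wells, capped at 0 and 100%. One two-parameter sigmoid per drug and line, fitted in a mixed model over all curves with the slope shared within a line.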
In the case of “OV-17R (ovary, adherent, top dose 10.24 µM)”, the AUC is reported as 0.981 and the IC50 is reported as greater than 10.2 µM. For “OV-56 (ovary, adherent, top dose 10.24 µM)”, the AUC was 0.987 and the IC50 was greater than 10.2 µM. Cell Line “OV-90 (ovary, adherent, top dose 10.24 µM)” has an AUC of 0.98 and an IC50 greater than 10.2 µM. “OVCA420 (ovary, adherent, top dose 10.24 µM)” was tested, and the AUC was 0.982 and the IC50 was greater than 10.2 µM. With “OVCA433 (ovary, adherent, top dose 10.24 µM)” the AUC was 0.984 and the IC50 was greater than 10.2 µM. “OVCAR-3 (ovary, adherent, top dose 10.24 µM)” showed an AUC of 0.987 and an IC50 greater than 10.2 µM. Work on “OVCAR-4 (ovary, adherent, top dose 10.24 µM)” yielded an AUC of 0.97 and an IC50 greater than 10.2 µM. Cell Line “OVCAR-5 (ovary, adherent, top dose 10.24 µM)” has an AUC of 0.974 and an IC50 greater than 10.2 µM. With “OVCAR-8 (ovary, adherent, top dose 10.24 µM)” the AUC was 0.99 and the IC50 was greater than 10.2 µM. “OVISE (ovary, adherent, top dose 10.24 µM)” was tested, and the AUC was 0.958 and the IC50 was greater than 10.2 µM. Cell Line “OVK-18 (ovary, adherent, top dose 10.24 µM)” has an AUC of 0.986 and an IC50 greater than 10.2 µM. “OVKATE (ovary, adherent, top dose 10.24 µM)” showed an AUC of 0.972 and an IC50 greater than 10.2 µM. “OVMIU (ovary, adherent, top dose 10.24 µM)” gave an AUC of 0.971 and an IC50 greater than 10.2 µM. For “OVTOKO (ovary, adherent, top dose 10.24 µM)”, the AUC was 0.976 and the IC50 was greater than 10.2 µM. “P12-ICHIKAWA (T-cell lymphoblastic leukaemia, suspension, top dose 2.56 µM)” was tested, and the AUC was 0.994 and the IC50 was greater than 2.56 µM. In the case of “P30-OHK (lymphoblastic leukaemia, suspension, top dose 10.24 µM)”, the AUC is reported as 0.893 and the IC50 is reported as 8.62 µM. For “P31-FUJ (acute myeloid leukaemia, suspension, top dose 10.24 µM)”, the AUC was 0.996 and the IC50 was greater than 10.2 µM. Work on “P32-ISH (Burkitt lymphoma, suspension, top dose 10.24 µM)” yielded an AUC of 0.995 and an IC50 greater than 10.2 µM. In the case of “PA-1 (ovary, adherent, top dose 10.24 µM)”, the AUC is reported as 0.993 and the IC50 is reported as greater than 10.2 µM. Work on “PA-TU-8902 (pancreas, adherent, top dose 10.24 µM)” yielded an AUC of 0.983 and an IC50 greater than 10.2 µM. Work on “PA-TU-8988T (pancreas, adherent, top dose 10.24 µM)” yielded an AUC of 0.987 and an IC50 greater than 10.2 µM. In the case of “PANC-02-03 (pancreas, adherent, top dose 10.24 µM)”, the AUC is reported as 0.983 and the IC50 is reported as greater than 10.2 µM. In the case of “PANC-03-27 (pancreas, adherent, top dose 10.24 µM)”, the AUC is reported as 0.986 and the IC50 is reported as greater than 10.2 µM. Cell Line “PANC-04-03 (pancreas, adherent, top dose 10.24 µM)” has an AUC of 0.978 and an IC50 greater than 10.2 µM. In the case of “PANC-08-13 (pancreas, adherent, top dose 10.24 µM)”, the AUC is reported as 0.977 and the IC50 is reported as greater than 10.2 µM. “PANC-10-05 (pancreas, adherent, top dose 10.24 µM)” gave an AUC of 0.98 and an IC50 greater than 10.2 µM. “PC-3 (prostate, adherent, top dose 10.24 µM)” was tested, and the AUC was 0.974 and the IC50 was greater than 10.2 µM. “PC-3 [JPC-3] (lung adenocarcinoma, adherent, top dose 10.24 µM)” was tested, and the AUC was 0.977 and the IC50 was greater than 10.2 µM. With “PC-14 (lung adenocarcinoma, adherent, top dose 10.24 µM)” the AUC was 0.987 and the IC50 was greater than 10.2 µM. Cell Line “PCI-4B (head and neck, adherent, top dose 10.24 µM)” has an AUC of 0.987 and an IC50 greater than 10.2 µM. With “PCI-6A (head and neck, adherent, top dose 10.24 µM)” the AUC was 0.988 and the IC50 was greater than 10.2 µM. For “PCI-15A (head and neck, adherent, top dose 10.24 µM)”, the AUC was 0.987 and the IC50 was greater than 10.2 µM. In the case of “PCI-30 (head and neck, adherent, top dose 10.24 µM)”, the AUC is reported as 0.985 and the IC50 is reported as greater than 10.2 µM. For “PCI-38 (head and neck, adherent, top dose 10.24 µM)”, the AUC was 0.985 and the IC50 was greater than 10.2 µM. In the case of “PE/CA-PJ15 (head and neck, adherent, top dose 10.24 µM)”, the AUC is reported as 0.986 and the IC50 is reported as greater than 10.2 µM. For “PEO1 (ovary, adherent, top dose 10.24 µM)”, the AUC was 0.984 and the IC50 was greater than 10.2 µM. “PF-382 (T-cell lymphoblastic leukaemia, suspension, top dose 2.56 µM)” showed an AUC of 0.985 and an IC50 greater than 2.56 µM. For “PFSK-1 (medulloblastoma, adherent, top dose 10.24 µM)”, the AUC was 0.986 and the IC50 was greater than 10.2 µM. Cell Line “PL4 (pancreas, adherent, top dose 10.24 µM)” has an AUC of 0.986 and an IC50 greater than 10.2 µM. “PL18 (pancreas, adherent, top dose 10.24 µM)” gave an AUC of 0.988 and an IC50 greater than 10.2 µM. “PL-21 (acute myeloid leukaemia, suspension, top dose 10.24 µM)” was tested, and the AUC was 0.982 and the IC50 was greater than 10.2 µM. Cell Line “PSN1 (pancreas, adherent, top dose 10.24 µM)” has an AUC of 0.991 and an IC50 greater than 10.2 µM. “QGP-1 (pancreas, adherent, top dose 10.24 µM)” gave an AUC of 0.977 and an IC50 greater than 10.2 µM. “QIMR-WIL (acute myeloid leukaemia, suspension, top dose 10.24 µM)” showed an AUC of 0.987 and an IC50 greater than 10.2 µM. In the case of “RC-K8 (B-cell lymphoma, suspension, top dose 10.24 µM)”, the AUC is reported as 0.993 and the IC50 is reported as greater than 10.2 µM. “RCC10RGB (kidney, adherent, top dose 10.24 µM)” gave an AUC of 0.957 and an IC50 greater than 10.2 µM. With “RCC-AB (kidney, adherent, top dose 10.24 µM)” the AUC was 0.967 and the IC50 was greater than 10.2 µM. For “RCC-ER (kidney, adherent, top dose 10.24 µM)”, the AUC was 0.984 and the IC50 was greater than 10.2 µM. For “RCC-FG2 (kidney, adherent, top dose 10.24 µM)”, the AUC was 0.981 and the IC50 was greater than 10.2 µM. In the case of “RCC-JF (kidney, adherent, top dose 10.24 µM)”, the AUC is reported as 0.981 and the IC50 is reported as greater than 10.2 µM. In the case of “RCC-JW (kidney, adherent, top dose 10.24 µM)”, the AUC is reported as 0.936 and the IC50 is reported as greater than 10.2 µM. “RCC-MF (kidney, adherent, top dose 10.24 µM)” gave an AUC of 0.977 and an IC50 greater than 10.2 µM. “RCM-1 (large intestine, adherent, top dose 10.24 µM)” showed an AUC of 0.984 and an IC50 greater than 10.2 µM. “RD (rhabdomyosarcoma, adherent, top dose 10.24 µM)” was tested, and the AUC was 0.985 and the IC50 was greater than 10.2 µM. Work on “REH (B-cell leukaemia, suspension, top dose 10.24 µM)” yielded an AUC of 0.971 and an IC50 greater than 10.2 µM. In the case of “RERF-GC-1B (stomach, adherent, top dose 10.24 µM)”, the AUC is reported as 0.981 and the IC50 is reported as greater than 10.2 µM. For “RERF-LC-KJ (lung adenocarcinoma, adherent, top dose 10.24 µM)”, the AUC was 0.984 and the IC50 was greater than 10.2 µM. “RERF-LC-MS (lung adenocarcinoma, adherent, top dose 10.24 µM)” was tested, and the AUC was 0.987 and the IC50 was greater than 10.2 µM. Work on “RERF-LC-Sq1 (lung squamous cell carcinoma, adherent, top dose 10.24 µM)” yielded an AUC of 0.979 and an IC50 greater than 10.2 µM. “RF-48 (stomach, adherent, top dose 10.24 µM)” gave an AUC of 0.981 and an IC50 greater than 10.2 µM. Cell Line “RH-1 (rhabdomyosarcoma, adherent, top dose 10.24 µM)” has an AUC of 0.992 and an IC50 greater than 10.2 µM. In the case of “RH-41 (rhabdomyosarcoma, adherent, top dose 10.24 µM)”, the AUC is reported as 0.986 and the IC50 is reported as greater than 10.2 µM. Cell Line “RKN (ovary, adherent, top dose 10.24 µM)” has an AUC of 0.981 and an IC50 greater than 10.2 µM. Cell Line “RKO (large intestine, adherent, top dose 2.56 µM)” has an AUC of 0.988 and an IC50 greater than 2.56 µM. For “RL95-2 (endometrium, adherent, top dose 10.24 µM)”, the AUC was 0.987 and the IC50 was greater than 10.2 µM. Work on “RL (B-cell lymphoma, suspension, top dose 10.24 µM)” yielded an AUC of 0.989 and an IC50 greater than 10.2 µM. Work on “RMG-I (ovary, adherent, top dose 10.24 µM)” yielded an AUC of 0.971 and an IC50 greater than 10.2 µM. Cell Line “RO82-W-1 (thyroid, adherent, top dose 10.24 µM)” has an AUC of 0.981 and an IC50 greater than 10.2 µM.

Same assay, conditions: top dose 5 µM; screen: GDSC drug entry 1072; top dose inferred
OV-56 (ovary, adherent) gave an AUC of 0.98 and an IC50 greater than 5 µM. In the case of OV-90 (ovary, adherent), the AUC is reported as 0.976 and the IC50 is reported as greater than 5 µM. OVCA420 (ovary, adherent) was tested, and the AUC was 0.964 and the IC50 was greater than 5 µM. OVCA433 (ovary, adherent) showed an AUC of 0.92 and an IC50 greater than 5 µM. OVK-18 (ovary, adherent) gave an AUC of 0.986 and an IC50 greater than 5 µM. With PEO1 (ovary, adherent) the AUC was 0.983 and the IC50 was greater than 5 µM. With PWR-1E (prostate, adherent) the AUC was 0.984 and the IC50 was greater than 5 µM. QGP-1 (pancreas, adherent) was tested, and the AUC was 0.935 and the IC50 was greater than 5 µM. Cell Line RCC-AB (kidney, adherent) has an AUC of 0.952 and an IC50 greater than 5 µM. With RCC-ER (kidney, adherent) the AUC was 0.982 and the IC50 was greater than 5 µM. Cell Line RCC-FG2 (kidney, adherent) has an AUC of 0.976 and an IC50 greater than 5 µM. RCC-JF (kidney, adherent) was tested, and the AUC was 0.969 and the IC50 was greater than 5 µM. For RCC-JW (kidney, adherent), the AUC was 0.985 and the IC50 was greater than 5 µM. With RCC-MF (kidney, adherent) the AUC was 0.98 and the IC50 was greater than 5 µM. Cell Line RCH-ACV (B-cell leukaemia, suspension) has an AUC of 0.991 and an IC50 greater than 5 µM. RH-18 (rhabdomyosarcoma, adherent) was tested, and the AUC was 0.945 and the IC50 was greater than 5 µM.
